Assay results from the supplement of paper PMC11417369.
The other results are listed elsewhere or left out.

tested on: PfAP2-HC AP2 domain (GST-tagged); experiment: gcPBM binding intensity (ln(normalized median fluorescence intensity)); higher = stronger DNA binding
How it was run: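 The highest Masliner-normalised natural-log median intensity across replicate spots of either probe orientation is reported as binding intensity. GST-tagged P. falciparum DNA-binding domains expressed in E. coli were applied for 1 h to an Agilent 4 × 180k array of primer-extended double-stranded 36-bp intergenic genomic probes plus negative controls, and bound protein was detected with Alexa488 anti-GST antibody and scanned at 488 nm.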

| Sequence | gcPBM binding intensity (ln) |
| --- | --- |
| TCACTTTTATAATATAATATTCTATATCTTATTTTT [GTGCAC_negctrl_site717] | 9.83 |
| TTTTTTATTTTATTTTTTTCTGCTTATCCACATTAG [XGTACX_negctrl_site108] | 9.41 |
| AGCCATTATAATTCTTGTACATAATATAGCTATTTT [XGTACX_site1723] | 9.9 |
| TATTTAAATTGTAAGTGTACATATATAAATGTAAAA [XGTACX_site1609] | 9.66 |
| TATATAGTAATTTATTCACACAATTGGCACACCTCA [CACACA_site4679] | 9.89 |
| TATAATATATATTTGTGTCCACAACATTTTTAATAT [XGTACX_site2089] | 9.68 |
| AATAAATTAAAACAGGTGCACTATATTACACACGCT | 9.88 |
| TAGATACAGAAACACACACACACATACATATATACA [CACACA_site3437] | 10.6 |
| TTATGGAGAGTTATATGTACGAAAAATATGTATAAG [XGTACX_site515] | 9.54 |
| AGAATTATTGTTAATGCATGTGGAAGTTAAAATATT [TGCATGCA_site188] | 9.71 |
| AATAATATATGGTGTACACAAAAGTATAAATAATTT [CACACA_site5338] | 10.1 |
| TATAAAAAAATAATAAATAAATAAAAAGATTTCTTT [TGCATGCA_negctrl_site122] | 9.53 |
| TAGATACATACACGCACACACATATATAAATAAATA [CACACA_site6157] | 10.9 |
| TTACGTATGTATTATGTTGTATATGAAATTAAAAAA [GTGCAC_negctrl_site292] | 9.44 |
| TAATTATGTACTATTATACACACGTTTAATTGTAAA [CACACA_site206] | 9.64 |
| TAAAAAGGAAAACACACACACACATATATATATATA [CACACA_site3588] | 11.4 |
| TTACTAAAAATTATTAATAAATAATAATTATAAATT [GTGCAC_negctrl_site310] | 9.34 |
| TTATTATTAAGACACACACACAAAAAAAAAAAAAAA [CACACA_site6805] | 10.1 |
| TTTCCAATTAGTTTTGCATGTTGAAAAAATGTTGGA [TGCATGCA_site1035] | 9.34 |
| TATTTTAACTTCTCATGTACATATATTATGTCTATA [XGTACX_site249] | 9.86 |
| TATCATAAACTTCCTTACTATACTTTTCTTATTCAT [CACACA_negctrl_site1341] | 9.75 |
| CTTTGTAGTATATTAACACACAACTATTTATAATAT [CACACA_site3934] | 9.82 |

| Sequence | gcPBM binding intensity (ln) |
| --- | --- |
| TTGTGTTTGCGTAAATGTACGGAAAGACTTGAAGAC [XGTACX_site7235] | 9.81 |
| TTGTTAGAGTATATTGAAAGGATAACCTTTTTTTAT [XGTACX_negctrl_site122] | 9.43 |
| ACCATACATACATACACACACACACCCATATATATA [CACACA_site2917] | 10.6 |
| TTTCATGTTTTAAAGTGTACATAAATATATTATATG [XGTACX_site3367] | 9.64 |
| ACACTTAAATATTGTTGTACAAAATGATAAAATGTA [XGTACX_site4588] | 9.88 |
| GGAAACACAATATATACACACATATATATATATATA [CACACA_site235] | 9.82 |
| TTGATGTATACAATGTAGATTATTTAATATTTCAAT [GTGCAC_negctrl_site203] | 9.48 |
| TTATATAACCCTCATGCATGCTAAGAAAAAAAAAAC [TGCATGCA_site936] | 9.55 |
| ATTTATATTATAATATGTACACAAAAAAAATTAGGA [XGTACX_site565] | 9.64 |
| TAACATATCTTTAATACACACTTAAAAAAGTACTTA [CACACA_site4532] | 9.41 |
| AGCATTAAAAATGGAATGGAATTAAGCTATATATTA [CACACA_negctrl_site1571] | 9.8 |
| GAAACTTCAAGAAATGCACACAATAAAATAAATAAA [CACACA_site1549] | 9.89 |
| AGTATATATTATATATATATATATATATTATATATG [TGCATGCA_negctrl_site99] | 9.47 |
| ATAGAATATTATATTACACACAGAATAATAAAAAAT [CACACA_site86] | 9.98 |
| ACATCTCTTATATATTCACACACATATATATAATTA [CACACA_site8424] | 10 |
| TTAAAAAATTTTTAAGCACACACATAGATAATATAT [CACACA_site8440] | 9.96 |
| TTTTTTTTTTAATTCGCACACTGTCTTCATGCAATT [CACACA_site4882] | 9.92 |
| GCACATCTATATGAAACACACATGGAAACATCTCTT [CACACA_site7793] | 9.81 |
| TGTATATATTATAAAAGTACATAATATTCTTAGATA [XGTACX_site5623] | 9.51 |
| TTATCTTACATAAATTATAACAATAATATGTGTATA [XGTACX_negctrl_site379] | 9.58 |
| CATTTCGAAAAAAAATGTACTTATTATATTTATATA [XGTACX_site6752] | 9.48 |
| TTTTGTCTTATATGTTGTACAACGTAAACAAAAAAA [XGTACX_site4412] | 9.32 |

| Sequence | gcPBM binding intensity (ln) |
| --- | --- |
| AAAAGAATATATAATTGTACTTAAAATATAATTAAG [XGTACX_site4484] | 9.64 |
| TTTCGATTAAAAATTGTACAATATAAGGAGCACACA [GTGCAC_negctrl_site476] | 9.64 |
| AACCACAGACATATAACACACATATACAATATATAT [CACACA_site5142] | 10.4 |
| CTTTTTTTGACCTTAGTGCAAATAACTATATATTAT | 9.71 |
| TAAAAAAAAAAATGAACATGCAACAATTGTGATGAA [TGCATGCA_site332] | 9.84 |
| ACTGTAACAATCATGGGTACAAATAAAATAATATCT [XGTACX_site99] | 9.7 |
| ATGAAAATTATAAAGTGTACATATAGAAACATTTAC [XGTACX_site8047] | 9.75 |
| ATGGGACATATATATACACACATATATATATATATA [CACACA_site1202] | 9.73 |
| AAAAAAATTAAACATGAAGAATAAGGAACAAAAAAA [CACACA_negctrl_site1607] | 9.87 |
| TTTAATCATATGTTATATAATAAGCCCCCCCCCCAA [CACACA_negctrl_site486] | 10.3 |
| ATTTAAGTAGTACATACACACACATATACAAAAAGA [CACACA_site9317] | 10.2 |
| ATTAATTAAGGCACATGTACAAAATATTTTTTATAA [XGTACX_site1964] | 9.68 |
| TATACAATCTATATAACACACATATTTATATAAAAT [CACACA_site1797] | 9.73 |
| AATATAGTTCAATATACACACCCCTTTATTCATTTT [CACACA_site3625] | 9.89 |
| GTAACATACACATATACACACACACCGATATACATA [CACACA_site8278] | 10.6 |
| CAATATAAAAAACACACACACAAACATATATTTATA [CACACA_site3703] | 10.5 |
| TGTCGGCTTAGATTAGTGCACTGAAAAATGAAGTAT [GTGCAC_site9919] | 9.61 |
| TATTTATATAAAAATACACACATGAATGGATATATA [CACACA_site6335] | 9.77 |
| ACAAAACGAACATACGCATGTGTGTACATTAATATA [TGCATGCA_site922] | 10.1 |
| TTATTTACATCAAGTACATGCAGTAAAAAAAAAAAA [TGCATGCA_site351] | 9.6 |
| CACCAATTCCTATGCACACACATCTGCATATTATAT [CACACA_site5049] | 10.8 |
| ATATAATATATGTATACACACATATTATATAATATT [CACACA_site3699] | 9.85 |

| Sequence | gcPBM binding intensity (ln) |
| --- | --- |
| ATGAACAGTTCATGTTGTACAATCTCCATTTTTTAC [XGTACX_site3933] | 9.68 |
| TATACACATTTTTATACACACTTGTTTTATAAAACG [CACACA_site6480] | 9.76 |
| ATAATATGAAATATAACACACATATATAAAAACATT [CACACA_site866] | 10 |
| TATTTTTTTTTTGGGTGTACCTTTTATATATATTGT [XGTACX_site5036] | 9.65 |
| TATATATATATATATGCATGTACATATATTTGTTAT [TGCATGCA_site379] | 10.4 |
| TTTTTTTTTTTTTTTTGTACTTAAAAATTTATATAA [XGTACX_site7718] | 9.08 |
| ATTTAACTAAAGAAGGCACACGTGTTTAAAAAAAAA [CACACA_site5241] | 9.68 |
| CATTTATATATATACACACACACAAAAAAAAAAAAA [CACACA_site2645] | 10.7 |
| GACGTTATGATACACATACACACAGGGATAAAAAAT [CACACA_site2882] | 9.89 |
| AATATTATATTTTATTGTACTAATAAAAATATATGC [XGTACX_site5435] | 9.43 |
| TAATGTATATGTAAATGTACATGTATATTATTTAAA [XGTACX_site1840] | 9.57 |
| ATCAAAGATAAATTTACACACATATATATATATATA [CACACA_site2969] | 9.81 |
| AAGATATTTGTATAATGTACAAAACTATATAAAACT [XGTACX_site1433] | 9.7 |
| TCTTCCCAAATAAAGTGTACATAAATACGAATAATA [XGTACX_site4363] | 9.44 |
| AAAATTAAAATATATACACACATATATATATTAAAT [CACACA_site4419] | 9.82 |
| AAATATACAAAATATACACACATATTTATTTATGAT [CACACA_site2051] | 9.84 |
| TATTTTCATTTGCGCGCACACAATAATAATTTTTGG [CACACA_site3525] | 10.1 |
| AACAATTATTTATCTACACACTTTTATGTTATTTAC [CACACA_site9] | 9.91 |
| TATAAATTAATGACATGTACATAAAAGTATAGATGT [XGTACX_site6534] | 9.95 |
| TAAAAAATATAAATGACACACACTTAAAAACAAAGA [CACACA_site671] | 10.5 |
| AATACAATATAGTGAAAAATAATTAAATACAATAAG [XGTACX_negctrl_site161] | 9.91 |
| CGTAAACAATTATGATGTACATAAAATATATATATA [XGTACX_site2705] | 9.9 |
